Test results taken from PubChem BioAssay AID651820 (National Center for Advancing Translational Sciences (NCATS), 2012).
Hit rate of the full screen: of about 340,000 compounds, about 12,000 (3.5%) were called active. Inconclusive means that the source gave no clear call. Such entries were picked first, then a sample of the others. Calls come from the whole dose curve; as a rule, active = well fitted inhibition curve with a large enough effect; inconclusive = small, poorly fitted or top-dose-only effect, or another doubt; inactive = no such curve, though single readings can be large or run the other way. No potency is given beside an inconclusive call; the fits are too rough.

Test: qHTS Assay for Inhibitors of Hepatitis C Virus (HCV)
Settings: Huh7.5.1 HCVcc-Cre (HCVcc is cell-culture hepatitis C virus) infection, luciferase reporter, 44 h; activity change, negative = inhibition: at 41.8 µM (top of the series) unless noted
Outline: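 Antiviral activity was scored by luciferase reporter output from cells infected with HCVcc-Cre (~0.5 moi) in presence of compound, 44 h infection period, cells seeded 1,000/well 4 h prior.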
% is set by controls: 0 for no effect and ±100 for the full control effect; potency is the fitted concentration of half-maximal effect; tags give direction and shape of the fitted curve.

| Structure (SMILES) | Potency | activity change, negative = inhibition |
| --- | --- | --- |
| CSc1ncccc1C(=O)Nc1cccc(S(=O)(=O)N2CCCC2)c1 | inconclusive [inhibitor, single point] |  |
| N/C(=N\OC(=O)COc1ccccc1Cl)c1ccc(Cl)cc1 | inconclusive [inhibitor, single point] |  |
| CC(=O)N1CCN(c2ccc(NC(=O)c3ccc4ccccc4c3)cc2)CC1 | inconclusive [inhibitor, partial curve] |  |
| O=C1C(=O)N(CCCc2ccccc2)c2ccccc21 |  | inactive: -21.8% |
| c1ccc(CN=C2NN=C(c3cc4ccccc4o3)CS2)cc1 |  | inactive: -15.5% |
| Cc1nc(-c2ccc(Cl)cc2)sc1C1(C)CC(c2ccc(F)cc2)=NO1 (stereo not given) |  | inactive: 11.6% |
| O=C1S/C(=C\C=C\c2ccco2)C(=O)N1c1ccccc1 |  | inactive: 2.07% |
| CC(C)(C)c1ccc(Cn2nnc3c(=O)[nH]c(C4CCN(C(=O)Cc5cccs5)CC4)nc32)cc1 |  | inactive: -21.2% |
| Cc1nnc(SCC(=O)Nc2nsc(-c3ccccc3)n2)s1 | inconclusive [inhibitor, single point] |  |
| COc1ccc(Nc2nnc(-c3ccc(C)cc3)c3ccccc23)cc1C(=O)N1CCCCC1 | inconclusive [inhibitor, single point] |  |
| CCOc1cc(CNc2ccc3cn[nH]c3c2)ccc1OC | inconclusive [inhibitor, single point] |  |
| Cc1cc(C(=O)N/N=C/c2ccc(Cl)c([N+](=O)[O-])c2)c(C)n1-c1ccc(F)cc1 | inconclusive [inhibitor, partial curve] |  |
| NC(=S)NN=Cc1nccc2ccccc12 | active: 2.82 µM |  |
| Cn1ccsc1=NC(=O)c1ccc(S(C)(=O)=O)cc1 |  | inactive: 2.26% |
| Cc1ccc2cc(CN(Cc3ccccc3)Cc3nnnn3C3CCCC3)c(=O)[nH]c2c1 | inconclusive [inhibitor, single point] |  |
| COc1ccccc1/C=N/NC(=O)c1ccc(NC(=O)c2ccccc2Br)cc1 | inconclusive [inhibitor, single point] |  |
| CN1CCN(S(=O)(=O)c2cccc(C(=O)Nc3sccc3C(N)=O)c2)CC1 | inconclusive [inhibitor, single point] |  |
| O=C(CSc1nnc(Nc2ccccc2)s1)Nc1ccc(S(=O)(=O)N2CCOCC2)cc1 | inconclusive [inhibitor, single point] |  |
| Cn1c(-c2ccc3c(c2)OCO3)cnc1N |  | inactive: -10.7% |
| Cc1ccccc1NC(=O)Cc1nc(COC(=O)c2ccc(NC(N)=O)cc2)cs1 | inconclusive [inhibitor, single point] |  |
